Reference: the supplement of paper PMC9588766
Where a name gives a salt, the structure may show the parent alone. ± gives the standard deviation of the averaged measurements. Over roughly 2,000 compounds, “cell viability relative to DMSO control (compound alone)” has its median near 0.98; the lowest 2% begin near 0.23. Some of the results follow.

system: PDC-DUC18828; assay: cell viability relative to DMSO control (compound alone) (fraction); PDC-DUC18828 is a patient-derived cholangiocarcinoma cell line; higher = less growth inhibition; details: 1 µM; 72 h
Protocol: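 Selleck Bioactive library screen in the patient-derived FGFR2-G3BP2 fusion-positive ICC cell line PDC-DUC18828 (500 cells/well). Each compound was tested at 1 uM alone, in triplicate, for 72 h. Viability was read by CellTiter-Glo and normalised to plate DMSO controls.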

Row | SMILES | cell viability
1 | CCC1C/C(=C\c2cccnc2)C(=O)/C(=C/c2cccnc2)C1 (centres undefined) | 0.594 ± 0.048
2 | CC(C)C[C@H](NC(=O)[C@H]1O[C@@H]1C(=O)O)C(=O)NCCCCN=C(N)N | 1.01 ± 0.047
3 | Oc1c2ccccc2c2c3c(cccc13)N=N2 | 0.992 ± 0.013
4 | COC(=O)[C@@H]1[C@H]2C[C@H]3c4[nH]c5ccccc5c4CCN3C[C@@H]2CC[C@@H]1O [Yohimbine HCl] | 1.01 ± 0.021
5 | C[C@@H]1O[C@@H](O[C@H]2[C@H](Oc3cc(O)c(C(=O)CCc4ccc(O)cc4)c(O)c3)O[C@H](CO)[C@@H](O)[C@@H]2O)[C@H](O)[C@H](O)[C@H]1O [Naringin Dihydrochalcone] | 0.8827 ± 0.0073
6 | CCCCNC(=O)NS(=O)(=O)c1ccc(C)cc1 [Tolbutamide] | 0.9 ± 0.014
7 | CCCS(=O)(=O)Nc1ccc(F)c(C(=O)c2c[nH]c3ncc(-c4ccc(Cl)cc4)cc23)c1F [Vemurafenib (PLX4032, RG7204)] | 0.989 ± 0.067
8 | O=C(Nc1c(Cl)cncc1Cl)c1ccc(OC(F)F)c(OCC2CC2)c1 [Roflumilast] | 0.922 ± 0.026
9 | CCOC(=O)OC(C)OC1=C(C(=O)Nc2ccccn2)N(C)S(=O)(=O)c2ccccc21 (centres undefined) [Ampiroxicam] | 0.984 ± 0.015
10 | Cc1cccc(-c2[nH]c(CNc3ccccc3F)nc2-c2ccc3ncnn3c2)n1 | 0.9 ± 0.075
11 | O=S(=O)(O)CCS [Mesna] | 0.989 ± 0.038
12 | Cn1nccc1Nc1nccc(-c2ccn([C@H](CO)c3ccc(Cl)c(F)c3)c(=O)c2)n1 | 1 ± 0.028
13 | OCc1cc(C(O)CNCCCCCCOCCCCc2ccccc2)ccc1O (centres undefined) [Salmeterol Xinafoate] | 0.925 ± 0.061
14 | CC(=O)OCC(=O)[C@@]12N=C(C)O[C@@H]1C[C@H]1[C@@H]3CCC4=CC(=O)C=C[C@]4(C)[C@H]3[C@@H](O)C[C@@]12C [Deflazacort] | 0.913 ± 0.064
15 | C[C@@H](CN1CC(=O)NC(=O)C1)N1CC(=O)NC(=O)C1 [Dexrazoxane HCl (ICRF-187, ADR-529)] | 1.05 ± 0.028
16 | Cc1nc2n(c(=O)c1CCN1CCC(c3noc4cc(F)ccc34)CC1)CCCC2 [Risperidone] | 1.09 ± 0.062
17 | CNCCC(Oc1ccc(C(F)(F)F)cc1)c1ccccc1 (centres undefined) [Fluoxetine HCl] | 0.992 ± 0.013
18 | CCC(=O)O[C@]1(C(=O)CCl)[C@@H](C)C[C@H]2[C@@H]3C[C@H](F)C4=CC(=O)C=C[C@]4(C)[C@@]3(F)[C@@H](O)C[C@@]21C [Halobetasol Propionate] | 0.927 ± 0.031
19 | CN(C)Cc1cccc(N/C(=C2\C(=O)Nc3cc(C(N)=O)ccc32)c2ccccc2)c1 | 0.993 ± 0.045
20 | CCN1CC(CCN2CCOCC2)C(c2ccccc2)(c2ccccc2)C1=O (centres undefined) [Doxapram HCl] | 0.928 ± 0.019
21 | CCC(CC)CC1(C(=O)Nc2ccccc2SC(=O)C(C)C)CCCCC1 | 1.08 ± 0.097
22 | Cn1cc(-c2ccc3nnc(C(F)(F)c4ccc5ncccc5c4)n3n2)cn1 | 0.994 ± 0.033
23 | c1ccc2[nH]c(-c3cscn3)nc2c1 [Thiabendazole] | 1.03 ± 0.021
24 | CNC(=O)Nc1ccc(-c2nc(N3CC4CCC(C3)O4)c3cnn(C4CCC5(CC4)OCCO5)c3n2)cc1 | 0.256 ± 0.018
25 | CN1CC2c3ccccc3Oc3ccc(Cl)cc3C2C1 (centres undefined) [Asenapine] | 0.9867 ± 0.0088

Row | SMILES | cell viability
26 | CCCCNc1ncc2c(-c3ccc(CN4CCN(C)CC4)cc3)cn([C@H]3CC[C@H](O)CC3)c2n1 | 0.586 ± 0.006
27 | COC1=C2C[C@@H](C)C[C@H](OC)[C@H](O)[C@@H](C)/C=C(\C)[C@H](OC(N)=O)[C@@H](OC)/C=C\C=C(/C)C(=O)NC(=CC1=O)C2=O [Geldanamycin] | 0.304 ± 0.003
28 | COc1ccc(-c2cc(=O)c3c(O)cc(O[C@@H]4O[C@H](CO[C@@H]5O[C@@H](C)[C@H](O)[C@@H](O)[C@H]5O)[C@@H](O)[C@H](O)[C@H]4O)cc3o2)cc1O [Diosmin] | 0.926 ± 0.082
29 | COc1cc(Nc2ncc(F)c(Nc3ccc4c(n3)N(COP(=O)(O)O)C(=O)C(C)(C)O4)n2)cc(OC)c1OC [Fostamatinib (R788)] | 0.837 ± 0.05
30 | Cn1c(=O)cc(N2CCC[C@@H](N)C2)n(Cc2ccccc2C#N)c1=O [Alogliptin] | 0.995 ± 0.029
31 | CC1(C)S[C@@H]2[C@H](NC(=O)[C@H](NC(=O)N3CCN(S(C)(=O)=O)C3=O)c3ccccc3)C(=O)N2[C@H]1C(=O)O [Mezlocillin Sodium] | 1.06 ± 0.057
32 | Cc1nnc(C(C)C)n1C1C[C@H]2CC[C@@H](C1)N2CC[C@H](NC(=O)C1CCC(F)(F)CC1)c1ccccc1 (stereo in doubt) [Maraviroc] | 1.02 ± 0.038
33 | CCCCCCCN(CC)CCCC(O)c1ccc(NS(C)(=O)=O)cc1 (centres undefined) [Ibutilide Fumarate] | 1.04 ± 0.041
34 | COc1cnc(NS(=O)(=O)c2ccc(N)cc2)nc1 [Sulfameter] | 1.07 ± 0.083
35 | O=NN(CCCl)C(=O)NC1CCCCC1 [Lomustine] | 0.9169 ± 0.0047
36 | COc1cc(CCC(C)=O)ccc1O [Vanillylacetone] | 1.02 ± 0.054
37 | CC(C)c1cc(C(=O)N2Cc3ccc(CN4CCN(C)CC4)cc3C2)c(O)cc1O | 0.404 ± 0.034
38 | CN1CCC(COc2cnc(-c3cccc(Cn4nc(-c5cccc(C#N)c5)ccc4=O)c3)nc2)CC1 | 1.04 ± 0.039
39 | COc1cc(C(=O)NC2CCCNC2)cc(OC)c1OC (centres undefined) [Troxipide] | 1.08 ± 0.05
40 | C[C@]12CC[C@@H]3c4ccc(O)cc4CC[C@H]3[C@@H]1CCC2=O [Estrone] | 1.01 ± 0.037
41 | CCCCCCCCc1ccc(CCC(N)(CO)CO)cc1 [Fingolimod (FTY720) HCl] | 0.937 ± 0.012
42 | Cc1ccc(-c2c(-c3nn(C)c4ncnc(N5CC[C@H](N6CCCCC6)C5)c34)cnn2C)cc1 | 1.01 ± 0.065
43 | O=C1OC(CN2CCOCC2)CN1/N=C/c1ccc([N+](=O)[O-])o1 (centres undefined) [Furaltadone HCl] | 1.08 ± 0.034
44 | CC(C)(C(=O)NCC(F)(F)C(F)(F)F)C(=O)N[C@@H]1C(=O)Nc2ccccc2-c2ccccc21 | 1.09 ± 0.023
45 | Cc1cc(C)c(CNC(=O)c2cc(-c3ccc(N4CCN(C)CC4)nc3)cc3c2c(C)cn3C(C)C)c(=O)[nH]1 | 0.998 ± 0.011
46 | COC(=O)[C@H](CCSC)NC(=O)c1ccc(NC[C@@H](N)CS)cc1-c1ccccc1 | 0.925 ± 0.024
47 | CCOc1cc(N)c(Cl)cc1C(=O)NCC1CN(Cc2ccc(F)cc2)CCO1 (centres undefined) [Mosapride Citrate] | 1.02 ± 0.046
48 | CCC(C)n1ncn(-c2ccc(N3CCN(c4ccc(OCC5COC(Cn6cncn6)(c6ccc(Cl)cc6Cl)O5)cc4)CC3)cc2)c1=O (centres undefined) [Itraconazole] | 0.972 ± 0.031
49 | Cc1cccc(Nc2ccccc2C(=O)O)c1C [Mefenamic Acid] | 1.07 ± 0.025
50 | C=CCn1c(=O)c2cnc(Nc3ccc(N4CCN(C)CC4)cc3)nc2n1-c1cccc(C(C)(C)O)n1 | 0.402 ± 0.025

Row | SMILES | cell viability
51 | Clc1ccc(C(Cn2ccnc2)OCc2csc3c(Cl)cccc23)c(Cl)c1 (centres undefined) [Sertaconazole nitrate] | 0.981 ± 0.06
52 | CC1(C)S[C@@H]2[C@H](NC(=O)Cc3ccccc3)C(=O)N2[C@H]1C(=O)O [Penicillin G Sodium] | 1.02 ± 0.023
53 | CCCCc1nc(Cl)c(CO)n1Cc1ccc(-c2ccccc2-c2nnn[nH]2)cc1 [Losartan Potassium (DuP 753)] | 1.01 ± 0.065
54 | O=C(Nc1cccc2cccnc12)c1ccc(N2C(=O)[C@@H]3[C@H](C2=O)[C@@H]2C=C[C@H]3C2)cc1 [IWR-1-endo] | 0.811 ± 0.029
55 | O=C1CCC(N2C(=O)c3ccccc3C2=O)C(=O)N1 (centres undefined) [Thalidomide] | 1.042 ± 0.0051
56 | c1cn2cc(-c3ccc4cn[nH]c4c3)nc(Nc3ccc(N4CCOCC4)cc3)c2n1 | 0.857 ± 0.053
57 | C[C@H](CCC(=O)NCCS(=O)(=O)O)[C@H]1CC[C@H]2[C@@H]3[C@@H](O)C[C@@H]4C[C@H](O)CC[C@]4(C)[C@H]3CC[C@]12C [Sodium Tauroursodeoxycholate (TUDC)] | 0.953 ± 0.043
58 | O=C(Nc1cccc(Nc2ncc(Br)c(NCCc3cnc[nH]3)n2)c1)N1CCCC1 | 0.713 ± 0.041
59 | COc1ccccc1N1CCN(CCCNc2cc(=O)n(C)c(=O)n2C)CC1 [Urapidil HCl] | 1.04 ± 0.078
60 | CN(C)CCCn1cc(C2=C(c3c[nH]c4ccccc34)C(=O)NC2=O)c2ccccc21 | 1.02 ± 0.041
61 | COc1nc(N)nc2c1ncn2[C@@H]1O[C@H](CO)[C@@H](O)[C@@H]1O [Nelarabine] | 0.984 ± 0.057
62 | O=c1c2ccccc2nc2n1CCc1c-2[nH]c2ccccc12 [Rutaecarpine] | 0.98 ± 0.02
63 | O=C(/C=C/C=C/c1ccc2c(c1)OCO2)N1CCCCC1 [Piperine] | 1 ± 0.044
64 | CCC(=O)OCC(=O)[C@@]1(OC(=O)CC)[C@@H](C)C[C@H]2[C@@H]3CCC4=CC(=O)C=C[C@]4(C)[C@@]3(Cl)[C@@H](O)C[C@@]21C [Beclomethasone dipropionate] | 0.87 ± 0.038
65 | Cc1cc(C)nc(SCC(=O)Nc2ncc(Cc3cccc4ccccc34)s2)n1 | 0.925 ± 0.023
66 | O=C1NC(=O)[C@@H](c2cn3c4c(cccc24)CCC3)[C@@H]1c1c[nH]c2ccccc12 [Tivantinib (ARQ 197)] | 0.469 ± 0.045
67 | C[C@H]1Oc2cc(cnc2N)-c2c(nn(C)c2C#N)CN(C)C(=O)c2ccc(F)cc21 | 0.961 ± 0.14
68 | C[C@@]1(c2cc(-c3cncnc3)c(F)cc2F)CCSC(N)=N1 | 0.988 ± 0.037
69 | CCOC(=O)Nc1ccc(NCc2ccc(F)cc2)nc1N [Flupirtine maleate] | 1.01 ± 0.013
70 | CCOc1cc(C(C)(C)C)ccc1C1=N[C@@](C)(c2ccc(Cl)cc2)[C@@](C)(c2ccc(Cl)cc2)N1C(=O)N1CCN(CCCS(C)(=O)=O)CC1 | 0.912 ± 0.0094
71 | O=C(O)CCCC[C@@H]1SC[C@@H]2NC(=O)N[C@@H]21 [Biotin (Vitamin B7)] | 0.996 ± 0.046
72 | O=C(/C=C/N1C[C@H]2C[C@@H]1CN2c1ccccn1)c1ccccc1O | 1.11 ± 0.056
73 | CC(=O)SCC(Cc1ccccc1)C(=O)NCC(=O)OCc1ccccc1 (centres undefined) [Racecadotril] | 0.954 ± 0.043
74 | C[C@H](CCC(=O)O)[C@H]1CC[C@H]2[C@@H]3CC[C@@H]4C[C@H](O)CC[C@]4(C)[C@H]3CC[C@]12C [Lithocholic acid] | 1.01 ± 0.03
